Assay results reported in PubChem BioAssay AID1461 (National Center for Advancing Translational Sciences (NCATS), 2008).
The campaign covered roughly 220,000 compounds. About 2,300 (1%) were called active. This list was built around the results that the source calls inconclusive (neither active nor inactive); the mix of calls is not that of the screen. The call rests on the fitted dose curve; in most records, active means well fitted inhibition curve with a large enough effect; inconclusive means small, poorly fitted or top-dose-only effect, or effect the other way; inactive means no such curve, though single readings can be large or run the other way. Potencies of inconclusive entries are left out as doubtful fits.

Molecular target: Neuropeptide S receptor (Homo sapiens) (UniProt Q6W5P4)
UniProt Q6W5P4, sequence (Q6W5P4 whole entry, looked up): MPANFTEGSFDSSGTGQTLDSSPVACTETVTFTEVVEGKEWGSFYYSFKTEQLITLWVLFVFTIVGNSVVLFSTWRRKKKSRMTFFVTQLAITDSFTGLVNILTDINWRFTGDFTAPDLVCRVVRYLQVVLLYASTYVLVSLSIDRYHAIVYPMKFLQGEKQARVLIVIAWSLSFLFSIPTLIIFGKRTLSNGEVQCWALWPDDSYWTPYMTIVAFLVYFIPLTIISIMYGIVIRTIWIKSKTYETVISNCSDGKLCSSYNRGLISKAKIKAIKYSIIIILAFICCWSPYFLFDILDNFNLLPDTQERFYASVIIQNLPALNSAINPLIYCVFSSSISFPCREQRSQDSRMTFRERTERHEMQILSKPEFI
Assay: qHTS Assay for Antagonists of the Neuropeptide S Receptor: cAMP Signal Transduction; further: nearly all actives have a fitted effect of over 50% in size
Conditions: CHO-NPSR cells, cAMP TR-FRET, antagonist mode; activity change, negative = inhibition: at 38.3 µM (top of the series) unless noted
On the % scale 0 is the no-effect control and ±100 the full control effect; potency means the concentration at half of the fitted maximal effect; tags describe the fitted curve by direction and shape.

Structure (SMILES) | Potency | activity change, negative = inhibition
NS(=O)(=O)c1ccc(CCNC(=O)C2CCCCN2S(=O)(=O)c2ccccc2)cc1 (stereo not given) | inconclusive [inhibitor, single point] | –
CC(=O)c1ccc(N2CCC(c3cc(-c4ccc(Cl)cc4Cl)n[nH]3)CC2)c([N+](=O)[O-])c1 | – | inactive: -28.2% [at 46.1 µM]
CCn1c(SCC(=O)NCCc2ccccc2)nnc1-c1ccco1 | – | inactive: -1.85% [at 46.1 µM]
Cc1ccc2c(c1)c1c(n2CC(O)Cn2c(C)nc3ccccc32)C(=O)CCC1 (stereo not given) | inconclusive [inhibitor, partial curve] | –
CCCC(=O)NC(c1ccccc1Cl)c1c(O)ccc2ccccc12 (stereo not given) | inconclusive [inhibitor, single point] | –
CCOC(=O)C1C(=O)Nc2nc3ccccc3n2C1C(C)C (stereo not given) | – | inactive: -8.4% [at 46.1 µM]
Cc1ccc(NC(NC(=O)c2cccs2)C(Cl)(Cl)Cl)cc1 (stereo not given) | inconclusive [inhibitor, partial curve] | –
CCOC(=O)/C(=C\C=C1/Sc2ccccc2N1CC)C(C)=O | – | inactive: -16.7%
CCOC(=O)C1(CCCc2ccccc2)CCN(C(=O)c2ccoc2)CC1 | – | inactive: 29.6%
CN(c1ccccc1)c1nc(N)c([N+](=O)[O-])c(N2CCCCC2)n1 | – | inactive: 52%
Cc1cc(C(N)=O)c2cc(Br)ccc2n1 | – | inactive: 10.5% [at 46.1 µM]
O=C(NC1CCCCC1)C(c1ccc2ncccc2c1)N(Cc1ccc(F)cc1)C(=O)c1ccc2c(c1)OCCO2 (stereo not given) | active: 12.6 µM | –
CCOC(=O)c1c(C)n(C)c2ccc(OC)c(NC(=O)CN3CCSCC3)c12 | inconclusive [activator, single point] | –
Cc1occc1-c1nnc(SCC(=O)Nc2ccccc2)n1C(C)c1ccccc1 (stereo not given) | inconclusive [inhibitor, single point] | –
CCSc1nc2sc3c(c2c(=O)[nH]1)CC(C)(CC)OC3 (stereo not given) | – | inactive: -2.31% [at 46.1 µM]
Cc1cccc(C)c1OC1(c2ccccc2)OC(=O)c2ccccc21 (stereo not given) | inconclusive [inhibitor, partial curve] | –
Cc1ccc(-n2nnnc2SCC(=O)Nc2cccc(NC(=O)c3ccco3)c2)cc1C | inconclusive [inhibitor, single point] | –
Cc1ccc(/C=C/C(=O)c2c(C)cc(C)[nH]c2=O)cc1 | inconclusive [activator, single point] | –
CCCOC(=O)c1ccc(Oc2c(-c3ccc(OCC)cc3O)n[nH]c2C)cc1 | inconclusive [inhibitor, full curve, poor fit] | –
O=C(C1=C[C@H](c2csc3ccccc23)C[C@H](OCCCCO)O1)N1CCN(Cc2ccccc2)CC1 | inconclusive [activator, partial curve] | –
